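Protocol summary: plate cells (96-well), add compound at 5 concentrations, incubate 48 h, interpolate endpoints linearly. Here, GI50 denotes the concentration required for 50% inhibition of growth. TGI: concentration producing complete growth inhibition.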
Tested on: NCI-H322M lung
Test: NCI anticancer screen, dose series, 48 h

SMILES	GI50 [µM]	TGI [µM]
CC1=C2C(=C[C@@](C)(C=O)[C@@H]2O)C(=O)[C@](C)(O)C12CC2	2.25	7.75
C#C[C@]1(O)CC[C@H]2[C@@H]3CC=C4c5sc(Nc6cccc(C)n6)nc5CC[C@]4(C)[C@H]3CC[C@@]21C	2.14	12.1
